Assay results as given in article PMC4336329 (PLoS ONE, 2015).
The campaign covered roughly 310,000 compounds. About 14,000 (4.5%) showed an effect of 50% or more. The effect is printed as a negative number. This is one part of the list.

What follows are molecules tested against human ether-à-go-go-related gene (hERG) potassium channel (human, UniProt Q12809) (assay: primary screen, population patch clamp on CHO cells stably expressing hERG).
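Also: peak tail current of the secondary pulse compared with the same well before compound.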

Sequence of human ether-à-go-go-related gene (hERG) potassium channel (Q12809 whole entry, looked up): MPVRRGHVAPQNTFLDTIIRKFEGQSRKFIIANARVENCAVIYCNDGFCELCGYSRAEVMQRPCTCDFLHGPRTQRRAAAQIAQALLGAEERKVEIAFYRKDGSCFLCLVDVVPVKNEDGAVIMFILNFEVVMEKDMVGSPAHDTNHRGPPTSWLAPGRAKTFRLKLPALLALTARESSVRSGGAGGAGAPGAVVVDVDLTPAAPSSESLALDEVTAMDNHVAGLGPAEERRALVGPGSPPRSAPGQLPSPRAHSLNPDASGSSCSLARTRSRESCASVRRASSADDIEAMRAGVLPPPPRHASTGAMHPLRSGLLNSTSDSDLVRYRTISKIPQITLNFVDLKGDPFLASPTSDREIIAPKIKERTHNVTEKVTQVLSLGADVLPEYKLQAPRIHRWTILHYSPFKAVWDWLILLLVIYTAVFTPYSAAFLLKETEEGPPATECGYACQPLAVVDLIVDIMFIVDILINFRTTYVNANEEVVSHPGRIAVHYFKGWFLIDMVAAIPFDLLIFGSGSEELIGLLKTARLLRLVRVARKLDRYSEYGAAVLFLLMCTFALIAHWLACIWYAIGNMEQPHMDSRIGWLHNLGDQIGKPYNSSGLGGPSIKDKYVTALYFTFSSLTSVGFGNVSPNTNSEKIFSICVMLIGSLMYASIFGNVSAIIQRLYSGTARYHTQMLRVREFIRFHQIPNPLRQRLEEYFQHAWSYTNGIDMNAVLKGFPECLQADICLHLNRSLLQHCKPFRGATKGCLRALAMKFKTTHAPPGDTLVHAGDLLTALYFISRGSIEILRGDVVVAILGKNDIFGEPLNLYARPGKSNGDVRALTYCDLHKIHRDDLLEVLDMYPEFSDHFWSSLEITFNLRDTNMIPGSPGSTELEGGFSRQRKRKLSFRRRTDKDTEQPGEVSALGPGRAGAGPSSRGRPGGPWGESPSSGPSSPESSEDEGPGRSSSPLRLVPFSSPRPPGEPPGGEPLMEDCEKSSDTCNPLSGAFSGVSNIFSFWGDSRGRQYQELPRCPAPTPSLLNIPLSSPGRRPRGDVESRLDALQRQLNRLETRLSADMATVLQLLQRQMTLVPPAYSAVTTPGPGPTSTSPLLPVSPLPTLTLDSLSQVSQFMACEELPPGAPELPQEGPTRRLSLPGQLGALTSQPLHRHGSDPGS

SMILES	hERG current change (%, negative = inhibition) at 10uM
C=C(C)C1CC=C(C)/C(=N/NC(=O)C2CC2c2ccccc2)C1 (stereo not shown)	25.4%
Cc1ccc(NS(=O)(=O)c2cc(NC(=O)C(C)Oc3ccccc3)ccc2C)c(C)c1 (stereo not shown)	-1.24%
CN1C(=O)C(C)(C)c2cc(S(=O)(=O)N3CCCC(C(=O)Nc4ccc(Cl)cc4)C3)ccc21 (stereo not shown)	-9.27%
O=C(O)C1=C(C(=O)Nc2ccc(F)c(Cl)c2)CCCC1	17.7%
c1cnc(N2CCN(c3ccc4ccccc4n3)CC2)nc1	12.5%
COc1ccc(CCN(C(=O)Cn2nnc3ccccc32)C(C(=O)NCC2CCCO2)c2ccncc2)cc1OC (stereo not shown)	48.5%
COc1ccccc1N(CC(=O)NCc1ccccc1)C(=O)CCC(=O)Nc1ccccn1	-9.48%
CC(=O)CN1C(=O)NC2(CCCc3ccccc32)C1=O (stereo not shown)	26.1%
CC(C)(C(N)=O)N1CCN(c2ncc(C(F)(F)F)cc2Cl)CC1	-42.4%
CC1CCN(C(=O)C(Cc2ccccc2)n2cccc2)CC1 (stereo not shown)	0.382%
Cc1ccc(S(=O)(=O)N2CCOCC2)cc1C(=O)OCC(=O)NC1CC1	-3.74%
CCOc1ccc(C(C(=O)NC2CCCCC2)N(CCOC)C(=O)c2snc(C(N)=O)c2N)cc1 (stereo not shown)	-47.5%
CCOC(=O)C(=NC(C)CC)NNc1cccc(C(F)(F)F)c1 (stereo not shown)	-1.86%
CC(C)(C)NC(=O)C(c1cccs1)N(C(=O)c1csnn1)c1ccccc1F (stereo not shown)	5.99%
O=C(NNC(=O)C1[C@H]2CCCC[C@@H]12)Nc1cccc2ccccc12 (stereo partly shown)	-6.11%
O=C(N/N=C/C(Cl)=C/c1ccc([N+](=O)[O-])cc1)C(=O)Nc1ccccc1C(=O)O	3.88%
COc1cc(SC)ccc1C(=O)OCC(=O)NCCNC(=O)COC(=O)c1ccc(SC)cc1OC	3.14%
O=C1c2cccc3c(N4CCCCC4)ccc(c23)C(=O)N1c1cccc(O)c1	32.6%
Cc1cc(C(F)F)n2nc(C(=O)Nc3sc4c(c3C#N)CCC4)nc2n1	18.3%
O=C(Nc1nc(-c2ccncc2)cs1)C1c2ccccc2Oc2ccccc21	8.83%
Cc1nn(C(C)C(=O)N2CCCC2)c(=O)c2nn(-c3ccccc3)c(C)c12 (stereo not shown)	-0.856%
CCN1CCN(CCNC(=O)c2ccc(/C=C3/Sc4ccccc4N(Cc4cccc(C)c4)C3=O)cc2)CC1	-22%

SMILES	hERG current change (%, negative = inhibition) at 10uM
O=C1CN=C(c2ccccc2)c2cc(Br)ccc2N1	-25.9%
COc1cc(C)ccc1OCc1cc(C(=O)NC(C)Cn2cncn2)no1 (stereo not shown)	13.8%
Cc1cccc(-n2c(C)nc3ccc(Cl)cc3c2=O)c1	-9.64%
CCOC(=O)C(NC(=O)c1cccc(Cl)c1)(OCc1ccccc1)C(F)(F)F (stereo not shown)	-5.11%
COc1ccc(CNC(=O)CN2C(=O)CC(c3ccccc3)=Nc3ccccc32)cc1	-8.66%
Nc1nonc1-c1nc2ccccc2[nH]1	-4.81%
Cc1cc(C)c(-c2cc(C(=O)Nc3c(C)n(C)n(-c4ccccc4)c3=O)[nH]n2)c(O)c1	-17.3%
COc1cccc(-c2nc(CS(=O)(=O)CC(=O)Nc3cc(OC)ccc3OC)c(C)o2)c1	15.4%
CCN(CC(=O)Nc1c(F)cccc1F)C(=O)CN1c2cccc3cccc(c23)S1(=O)=O	-0.876%
O=S(=O)(c1ccc(SCCO)nc1)N1CCOCC1	-2%
CCOc1ccc(CCNC(=O)CSc2cc(=O)n(C)c3ccccc23)cc1OCC	0.88%
C[C@@H]1C=C[C@](Cc2ccccc2)(C(=O)O)N1C(=O)c1ccccc1	14.8%
Cc1nccn1CCOc1ccc(Cl)cc1.O=C(O)C(=O)O	-38.4%
COc1ccc(NC(=O)c2ccc(-c3csc(C)n3)cc2)cc1	18.5%
CC1CC(C)CN(C(=O)C2CCN(S(=O)(=O)c3cccs3)CC2)C1 (stereo not shown)	-6.27%
CCCCCc1ccc(-c2cn(Cc3ccc(C)cc3)nn2)cc1	31.8%
COc1ccc(-c2ccc3c(c2)S(=O)(=O)c2cccc(C(=O)NC[C@@H]4CCCO4)c2C3=O)cc1OC	5.87%
CCCCOc1ccc(C2NC(=O)NC(C)=C2C(C)=O)cc1OCC (stereo not shown)	5.32%
CN1CCN(C(=O)c2cc3c(s2)-c2ccccc2S(=O)(=O)C3)CC1	4.14%
CCCn1c(CNC(=O)Cc2ccccc2)nc2ccccc21	-21.3%
CCC(NC(=O)c1cc(COc2cncc(Cl)c2)on1)c1ccc(C)cc1 (stereo not shown)	-24.3%
